Assay results: PubChem BioAssay (NCI)
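Compound exposure: 48 hours, 5 concentrations, 96-well plates. GI50 = concentration required for 50% inhibition of growth.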 Certain results were filed several times, with different values. This list holds those alone. The source may hold further records. For some of these results: The values listed for one entry are repeats (runs, samples, wells, individuals or studies). Marks in square brackets tell the records apart. Letters count within one entry.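 At the TGI there is no net growth.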 For some of these results: The tests behind the records often covered other concentration ranges, not given here; some values may only mark the edge of a range.

What was measured:
Experiment in all cases: growth of human tumour cells (NCI), 48 h
UO-31 renal = system: UO-31 renal
CAKI-1 renal = system: CAKI-1 renal
IGROV1 ovarian = system: IGROV1 ovarian
HS 578T breast = system: HS 578T breast
UACC-257 melanoma = system: UACC-257 melanoma
SN12C renal = system: SN12C renal
K-562 leukemia = system: K-562 leukemia
SNB-75 CNS = system: SNB-75 CNS
MOLT-4 leukemia = system: MOLT-4 leukemia
PC-3 prostate = system: PC-3 prostate
TK-10 renal = system: TK-10 renal
OVCAR-5 ovarian = system: OVCAR-5 ovarian
NCI-H23 lung = system: NCI-H23 lung
MDA-MB-231 breast = system: MDA-MB-231 breast
HL-60(TB) leukemia = system: HL-60(TB) leukemia
HOP-62 NSCLC = system: HOP-62 NSCLC
786-0 renal = system: 786-0 renal
BT-549 breast = system: BT-549 breast
EKVX NSCLC = system: EKVX NSCLC
KM12 colon = system: KM12 colon
RPMI-8226 leukemia = system: RPMI-8226 leukemia
SNB-78 CNS = system: SNB-78 CNS
NCI-H460 lung = system: NCI-H460 lung
SK-MEL-2 melanoma = system: SK-MEL-2 melanoma
MALME-3M melanoma = system: MALME-3M melanoma

Q: With `COc1cc2ncnc(Nc3ccc(F)c(Cl)c3)c2cc1NC(=O)/C=C/CN1CCCCC1` as the molecule, how does the GI50 (UO-31 renal) read?
A: The GI50 was 543 nM [sample A, mean of 2 tests] and 26.2 nM [sample B, mean of 2 tests].

Q: And the GI50 (CAKI-1 renal)?
A: The GI50 was 14.3 nM [sample A, 1 test] and 257 nM [sample B, mean of 2 tests].

Q: And the GI50 (IGROV1 ovarian)?
A: The GI50 was 342 nM [sample A, 1 test] and 11.7 nM [sample B, mean of 2 tests].

Q: `COc1cc2cc(C(=O)N3C[C@H](CCl)c4c3cc(N)c3ccccc43)[nH]c2c(OC)c1OC` was tested. Which TGI (HS 578T breast) did it give?
A: The TGI was 1.8 µM and > 50 µM.

Q: Which results are given for `C/C=C1\NC(=O)[C@H]2CSSCCC=C[C@H](CC(=O)N[C@H](C(C)C)C(=O)N2)OC(=O)[C@H](C(C)C)NC1=O`?
A: TGI (UACC-257 melanoma): 54.3 nM [sample A, mean of 6 tests] and 3.11 nM [sample A, mean of 9 tests] and < 10 nM [sample B, mean of 2 tests]; TGI (SN12C renal): 6.69 nM, 28.5 nM [sample A] and 362 nM [sample B]; TGI (UO-31 renal): 28.9 nM, 68.8 nM [sample A] and 987 nM [sample B]; TGI (K-562 leukemia): 97.8 nM [sample A, mean of 6 tests] and 24.3 nM [sample A, mean of 9 tests] and 1.01 µM [sample B, 1 test]; TGI (SNB-75 CNS): 31.9 nM, 440 nM [sample A] and 1.61 µM [sample B]; TGI (MOLT-4 leukemia): 15.5 nM, 47 nM [sample A] and 186 nM [sample B]; TGI (PC-3 prostate): 51.6 nM, < 39.1 nM [sample A] and 1.19 µM [sample B]; TGI (TK-10 renal): 25.8 nM, 113 nM [sample A] and < 10 nM [sample B]; TGI (OVCAR-5 ovarian): < 13.3 nM [sample A, mean of 4 tests] and 0.559 nM [sample A, mean of 7 tests] and 470 nM [sample B, mean of 2 tests]; TGI (NCI-H23 lung): 5.08 nM, 164 nM [sample A] and 126 nM [sample B]; TGI (MDA-MB-231 breast): 7.13 nM, < 37.6 nM [sample A] and 85.4 nM [sample B]; TGI (HL-60(TB) leukemia): 2.26 nM [sample A, mean of 10 tests] and < 44.1 nM [sample A, mean of 2 tests] and 1.19 µM [sample B, 1 test]; TGI (HOP-62 NSCLC): 39.3 nM, < 25.9 nM [sample A] and 1.13 µM [sample B]; TGI (786-0 renal): 92.2 nM [sample A, mean of 10 tests] and 373 nM [sample A, mean of 4 tests] and 2.69 µM [sample B, mean of 2 tests]; TGI (IGROV1 ovarian): 2.24 nM [sample A, mean of 9 tests] and 241 nM [sample B, mean of 2 tests]; TGI (BT-549 breast): 209 nM [sample A, mean of 2 tests] and 0.156 nM [sample A, mean of 6 tests] and 243 nM [sample B, mean of 2 tests]; TGI (EKVX NSCLC): 85.5 nM, 728 nM [sample A] and 1.68 µM [sample B]; TGI (KM12 colon): 4.14 nM, 111 nM [sample A] and < 10 nM [sample B]; TGI (RPMI-8226 leukemia): 2.71 nM, 73.8 nM [sample A] and 128 nM [sample B]; TGI (SNB-78 CNS): 99.2 nM and 1.03 µM; TGI (NCI-H460 lung): 31.6 nM, 51.4 nM [sample A] and 1.2 µM [sample B]; TGI (SK-MEL-2 melanoma): 40.5 nM [sample A, mean of 5 tests] and 0.855 nM [sample A, mean of 9 tests] and < 10 nM [sample B, mean of 2 tests]; TGI (MALME-3M melanoma): 57.3 nM [sample A, mean of 6 tests] and 0.0258 nM [sample A, mean of 7 tests] and 944 nM [sample B, mean of 2 tests]

Q: Which GI50 (CAKI-1 renal) does the source give for `C=CC(=O)Nc1cc2c(Nc3ccc(F)c(Cl)c3)ncnc2cc1OCCCN1CCOCC1` here?
A: The GI50 was 62.3 nM [sample A, mean of 2 tests] and 756 nM [sample B, mean of 2 tests].
